Measured values from patent US20240124563A1.

Molecular target: monkey MSLN full-length protein on HEK293T cells (monkey)
Assay: FACS, HEK293T-monkey MSLN cells

Sequence of monkey MSLN full-length protein on HEK293T cells (monkey) (chain, as listed by the source limits assumed, form in doubt): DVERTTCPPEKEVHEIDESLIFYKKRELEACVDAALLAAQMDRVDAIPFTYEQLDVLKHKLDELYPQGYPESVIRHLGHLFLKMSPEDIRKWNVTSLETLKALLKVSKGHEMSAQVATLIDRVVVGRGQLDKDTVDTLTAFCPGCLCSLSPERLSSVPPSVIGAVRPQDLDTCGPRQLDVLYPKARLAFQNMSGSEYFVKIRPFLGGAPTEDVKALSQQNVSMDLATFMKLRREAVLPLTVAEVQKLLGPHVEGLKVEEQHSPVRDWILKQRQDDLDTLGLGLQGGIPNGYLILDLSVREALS

Binder | Max MFI | EC50 [nM]
NB148-13 VHH-hFc (Fc fusion) QLQLVESGGGLVQAGGSLRLSCTASGSTSMSYGAKWFRRAPGKEREWVASVYRDGTTGYDDSVKGRFTISRDLAKNTVYLQMNSLRLEDTAVYYCTALNSWGQGTQVTVSS[human IgG1 Fc with changes not written out] | 106 | 
NB148-25 VHH-hFc (Fc fusion) QVQLVESGGGLVQAGGSLRLSCAASGSTFGRIVMRWYRQAQGKQREWVASIYDSGSTSYSDPVQGRFTISRDNARNTVYLQMNSLRPADTAVYYCNLGTALSSYWGQGTQVTVSS[human IgG1 Fc with changes not written out] | 78 | 
NB148-27 VHH-hFc (Fc fusion) EVQVVESGGGLVQAGASLRLSCASSGRTISPIAMAWFRQAPGKERELVAGLTWTGRTYYSDSVKGRFTISRDNAKNTVYLQMDSLKFEDTAVYFCAAGDNPDRRGSSWSSSSVYEYWGQGTQVTVSS[human IgG1 Fc with changes not written out] | 16700 | 1.57
NB148-35 VHH-hFc (Fc fusion) EVQVVESGGGLVQPGGSLRLSCGVSGSILALNTMRWYRQTPGNQREWVASIYSSGGSTGYADSVKGRFIISRDSAKNMMSLQMNSLKSEDTAVYYCNVQTPLNVYWGQGTQVTVSS[human IgG1 Fc with changes not written out] | 89 | 
NB148-46 VHH-hFc (Fc fusion) EVQLVESGGGLVQAGGSLRLSCAASGSTFSSYPMGWYRQAPGKQRELVAAISSGGSTNYADSVKGRFTISRDNAKNTVYLQMNSLKPEDTAVYYCNTRSPRVPNDSWGQGTQVTVSS[human IgG1 Fc with changes not written out] | 15600 | 0.88
NB148-88 VHH-hFc (Fc fusion) QLQLVESGGGLVQPGGSHRLSCAVSVSTFTRYAMRWYRQAPGKEREWLTSIYSDGSSAYADSVKDRFTISLDNAKNMLYLQMNSLKPEDTAVYYCNANVDSKAYWGQGTQVTVAS[human IgG1 Fc with changes not written out] | 136 | 
NB149-31 VHH-hFc (Fc fusion) EVQVVESGGGLVQPGGSLRLSCAASGITFSGNYGGWFRQAPGEQRELVASMSSALGTKYADPVKGRFTISTDTAKNTVDLQMNSLGPEDTAVYYCYARVRLSRGGWGSEYWGQGTQVTVSS[human IgG1 Fc with changes not written out] | 16600 | 0.89
NB149-34 VHH-hFc (Fc fusion) QLQLVESGGGLVQPGGSLRLSCAASGSVNSITAMGWYRQGPGNERELVAVITDRGRASYADSVKGRFAISMDNDKHTVYLQMDSLKPEDTAVYYCNAHRRTWPHPGDYWGQGTQVTVSS[human IgG1 Fc with changes not written out] | 16000 | 0.88
NB149-70 VHH-hFc (Fc fusion) QVQLVESGGGLVQPGGSLRLSCAASGSIFSGNAVAWYRQAPGKEREAVAVITRDGDTKYADSVKGRFTISRYNAKNIAYLQMNSLKPEDTAVYYCNTARGAAVDSWGQGTQVTVSS[human IgG1 Fc with changes not written out] | 16900 | 0.91
NB149-81 VHH-hFc (Fc fusion) EVQLVESGGGLVQAGGALRLSCAASERTFSSSSMGWFRQAPGKEREFVAAINRIGGHIYYADSVKGRFTISKDNAKNTVYLQMSSLKPEDTAVYYCASSRIYSHSARDYDYWGQGTQVTVSS[human IgG1 Fc with changes not written out] | 5630 | 
NB149-95 VHH-hFc (Fc fusion) QVQLVESGGGLVQAGGSLRLSCTASESGFSANYMGWYRQEAPGKERELVATINRFGSTNYADSVKGRFTISRDNAKNTVYLQMNSLKSEDTGVYYCRIMRPGNWYWGQGTQVTVSS[human IgG1 Fc with changes not written out] | 20100 | 1.96
NB149-97 VHH-hFc (Fc fusion) EVQVVESGGGLVQAGGGLRLSCAASERTFSSSSIGWFRQAPGKEREFVATMNRIGGHTFYADPVKGRFTISRDNAANTVYLQMSSLKPEDAAVYYCASSRIYSHSPRDYDYWSQGTQVTVSS[human IgG1 Fc with changes not written out] | 1520 | 
